B1: Caulobacter ParB omega fusion; a variant is named by its letters at X, in order, B8GW30 (parent)
chain: MESVVVGEPGMSEGRRGLGRGLSALLGEVDAAPAQAPGEQLGGSREAPIEILQRNPDQPRRTFREEDLEDLSNSIREKGVLQPILVRPSPDTAGEYQIVAGERAWRAAQRAGLKTVPIMVRELDDLAVLEIGIIENVQRADLNVLEEALSYKVLMEKFERTQENIAQTIGKSXSHVANXMRLLXLPDEVQSYLVSGELTAXHARAIAAAADPVALAKQIIEGGLSVRETEALARKAPNLSAGKSKGGRPPRVKDTDTQALESDLSSVLGLDVSIDHRGSTGTLTITYATLEQLDDLCNRLTRGI

Over roughly 81,000 sequences, “one-hybrid fitness for binding parS DNA” has its median near -0.17; the highest 2% begin near 0.51. This is one part of the list.

Variants of B1 are the subject of the assay. Briefly: one-hybrid fitness for binding parS DNA (scaled: cognate 1, non-cognate 0); higher = stronger binding. The conditions noted are these: with parS DNA site. In outline:
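In E. coli USO, a HIS3 reporter with its site placed 19 bp from the promoter was used to select Caulobacter ParB variants randomised at four specificity codons. Growth lasted 48 hours at 37°C on histidine-free M9 containing 0.1 mM IPTG and 5 mM 3-AT. Fitness was taken as the log change in variant-to-wild-type read ratio from Illumina sequencing of pre- and post-selection plasmids, rescaled between the non-cognate and cognate sites.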
Take QRHN: the “one-hybrid fitness for binding parS DNA” value is at most 0.2.

For the variant HGGS, the “one-hybrid fitness for binding parS DNA” value is at most 0.2. The same measure for VGGC: at most 0.2; for FLLR: at most 0.2; for PYGC: at most 0.2.

For RMMF, the “one-hybrid fitness for binding parS DNA” value was 0.247. On to RRFA, for which the “one-hybrid fitness for binding parS DNA” value was determined as 0.806. The value for PFEA was at most 0.2; that for LYSY was at most 0.2; that for ACTT was at most 0.2. The value for QYRL was at most 0.2. Regarding QIAW, the “one-hybrid fitness for binding parS DNA” value is at most 0.2. The value for YRPA was at most 0.2; that for HHWN was at most 0.2; that for WSKE was at most 0.2. The value for LYQR was at most 0.2; that for PHNF was at most 0.2. The same measure for AEGT: at most 0.2; for CCRD: at most 0.2. For WAWS, the “one-hybrid fitness for binding parS DNA” value is at most 0.2. With APRS, the “one-hybrid fitness for binding parS DNA” value is at most 0.2. The same measure for LYAC: at most 0.2; for KWCC: at most 0.2; for EAAN: at most 0.2.

For QCSI, the “one-hybrid fitness for binding parS DNA” value was at most 0.2.

As to YPNF, the “one-hybrid fitness for binding parS DNA” value is at most 0.2. In the case of KKRY, the “one-hybrid fitness for binding parS DNA” value was at most 0.2. The same measure for QFHA: at most 0.2; for MVSY: at most 0.2; for KSNL: at most 0.2. As to SHYD, the “one-hybrid fitness for binding parS DNA” value was at most 0.2. On to RWDR, for which the “one-hybrid fitness for binding parS DNA” value is at most 0.2. In the case of SDMY, the “one-hybrid fitness for binding parS DNA” value was at most 0.2. Regarding TFSF, the “one-hybrid fitness for binding parS DNA” value was at most 0.2. With KSSM, the “one-hybrid fitness for binding parS DNA” value is at most 0.2. The value for SFAR was at most 0.2; that for EHQL was at most 0.2; that for ETDG was at most 0.2. On to SNLT, for which the “one-hybrid fitness for binding parS DNA” value is at most 0.2. The value for NTFH was at most 0.2.

Take MSLM: the “one-hybrid fitness for binding parS DNA” value is at most 0.2.

Consider HVQS, for which the “one-hybrid fitness for binding parS DNA” value was at most 0.2.

In the case of LGPC, the “one-hybrid fitness for binding parS DNA” value is at most 0.2. The value for YFDS was at most 0.2. For QSWI, the “one-hybrid fitness for binding parS DNA” value was at most 0.2. The value for KNWD was at most 0.2; that for SLDK was at most 0.2. Turning to ECLV, the “one-hybrid fitness for binding parS DNA” value was at most 0.2. The same measure for KTCS: at most 0.2; for QPTD: at most 0.2. For IAMH, the “one-hybrid fitness for binding parS DNA” value is at most 0.2.

NLGM: the “one-hybrid fitness for binding parS DNA” value is at most 0.2. For WGLC, the “one-hybrid fitness for binding parS DNA” value was at most 0.2. With RYAD, the “one-hybrid fitness for binding parS DNA” value was at most 0.2. In the case of MGGQ, the “one-hybrid fitness for binding parS DNA” value was at most 0.2. The value for YTWF was at most 0.2; that for HLVA was at most 0.2. The same measure for HGKV: at most 0.2.

As to LCKK, the “one-hybrid fitness for binding parS DNA” value is at most 0.2. The same measure for IRKH: 0.213; for KSWV: at most 0.2.

Regarding QAYR, the “one-hybrid fitness for binding parS DNA” value is at most 0.2. As to CFDS, the “one-hybrid fitness for binding parS DNA” value was at most 0.2. With CICR, the “one-hybrid fitness for binding parS DNA” value is at most 0.2.

With AKRA, the “one-hybrid fitness for binding parS DNA” value is at most 0.2. The value for PLSP was at most 0.2; that for ACYG was at most 0.2. The value for KWTI was at most 0.2. The value for LWNC was at most 0.2; that for GHYS was at most 0.2; that for SVPK was at most 0.2.

Consider QHFT, for which the “one-hybrid fitness for binding parS DNA” value is at most 0.2.

Regarding YTIY, the “one-hybrid fitness for binding parS DNA” value was at most 0.2. For PWGA, the “one-hybrid fitness for binding parS DNA” value is at most 0.2. As to PAGH, the “one-hybrid fitness for binding parS DNA” value was at most 0.2. QFNA: the “one-hybrid fitness for binding parS DNA” value was at most 0.2.

Values taken from a collection of fitness landscapes (doi:10.1016/j.celrep.2020.107928).
